Data taken from PubChem BioAssay (NCATS).
“And” between values parts separate entries of the source, which are not always exact repeats. Equal values may be shown once. Inconclusive results, whose numbers are uncertain, are shown with a selection of clear calls. For some assays here: Potencies beside an inconclusive call are fits to weak or partial responses and may not hold up. The source made the active and inactive calls.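 How the source made its calls, unless noted: active means compounds whose dose series gives a full or clear partial fitted curve of increased nuclear translocation; inconclusive means weak partial curve or effect only at the top dose; inactive means no dose-dependent translocation response.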

Legend:
[1] = biological target: Glucocorticoid receptor (Homo sapiens) (UniProt P04150); test: GR-GFP Redistribution (AID 450); conditions: U2OS GR-GFP nuclear translocation, laser cytometry, 2 h; further: potency means the concentration at half of the fitted maximal effect
Sequence of UniProt P04150 (P04150 whole entry, looked up, the tested form may be a part): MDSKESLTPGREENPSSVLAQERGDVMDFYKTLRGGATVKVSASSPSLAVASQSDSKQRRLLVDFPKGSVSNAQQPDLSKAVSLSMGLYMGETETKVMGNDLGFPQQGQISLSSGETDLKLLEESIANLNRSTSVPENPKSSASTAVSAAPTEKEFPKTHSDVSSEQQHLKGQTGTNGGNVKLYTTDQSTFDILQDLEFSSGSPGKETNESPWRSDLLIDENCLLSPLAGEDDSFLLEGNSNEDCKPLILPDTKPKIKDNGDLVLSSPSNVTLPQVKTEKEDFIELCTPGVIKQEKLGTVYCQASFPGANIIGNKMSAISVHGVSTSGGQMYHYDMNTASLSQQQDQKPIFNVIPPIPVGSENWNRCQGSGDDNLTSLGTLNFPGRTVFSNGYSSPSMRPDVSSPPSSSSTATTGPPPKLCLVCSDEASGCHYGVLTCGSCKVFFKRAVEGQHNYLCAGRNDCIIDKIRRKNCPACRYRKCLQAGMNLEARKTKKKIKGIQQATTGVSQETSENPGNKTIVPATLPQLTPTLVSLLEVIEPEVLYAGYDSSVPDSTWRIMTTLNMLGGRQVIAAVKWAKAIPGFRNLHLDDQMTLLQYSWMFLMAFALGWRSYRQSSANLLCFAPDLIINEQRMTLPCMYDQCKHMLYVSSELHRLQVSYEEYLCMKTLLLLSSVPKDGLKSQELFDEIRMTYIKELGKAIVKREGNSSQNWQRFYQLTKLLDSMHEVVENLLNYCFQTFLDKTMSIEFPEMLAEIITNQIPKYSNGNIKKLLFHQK

[2] = biological target: Glucocorticoid receptor (Homo sapiens) (UniProt P04150); test: GR-EFC Redistribution (AID 451; calls by dose curve; further: potency means the concentration at half of the fitted maximal effect); conditions: CHO-K1 GR-EFC translocation, beta-gal luminescence, 2 h
Method in brief: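 Translocation of GR-ED fusion to nuclear EA restores b-gal, read by luminescence after 1 h room-temperature detection. Engineered CHO-K1 biosensor cells, 1,000/well, exposed 2 h at 37 C to titrations up to 46 uM final.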

[3] = qHTS Assay for Identification of Small Molecule Agonists for Hypoxia Response Element Signaling Pathway (AID 914; active means well fitted activation curve with a large enough effect in the signal ratio, with a control signal flat, not every such curve was filed as active; inconclusive means small, poorly fitted or top-dose-only effect, or effect the other way, or a change in a side signal; the % refers to the signal ratio; further: potency means the concentration at half of the fitted maximal effect; on activation: top concentration of the series differs between compounds; % of control where 0% means no effect); conditions: ME-180 HRE-bla reporter, beta-lactamase ratio, CoCl2, 17 h; activation: stronger effect = higher value
Method in brief: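 Read-out: CCF4 FRET ratio of 460nm to 530nm emission (excitation 405nm) after 2.5 hours at room temperature, taken from HRE-bla ME-180 cells that had been exposed to compound and EC50 CoCl2 for 17 hours.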

[4] = Stat Signaling Pathway (AID 446; active means well fitted curve in either direction with a large enough effect, not every such curve was filed as active; inconclusive means small, poorly fitted or top-dose-only effect, or another doubt;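 further: ME-180 cervical cancer cells given 40 pM IL-6 alongside compound; SIE-controlled beta-lactamase reporter measured as 460/530 nm FRET emission ratio; top concentration of the series differs between compounds; on the % scale 0 is the no-effect control and ±100 the full control effect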); conditions: ME-180 (cervical carcinoma) SIE beta-lactamase reporter, IL-6 stimulated, 5 h; at 7.69 µM (top of the series) unless noted
Method in brief: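 FRET read-out (405 nm excitation, 460/530 nm emission) of a beta-lactamase reporter under a STAT-inducible element in ME-180 cervical carcinoma cells. Cells with compound receive 40 pM IL-6 for 5 h. Values are normalised to AC90 stimulation and AC90 JAK-inhibitor controls.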

[5] = biological target: Muscarinic acetylcholine receptor M1 (Rattus norvegicus) (UniProt P08482); test: qHTS Assay for Antagonists of Acetylcholine Muscarinic M1 Receptor: Kinetic Measurement of Intracellular Calcium Response (AID 943; active means well fitted curve in the direction sought with a large enough effect; inconclusive means small, poorly fitted or top-dose-only effect, or another doubt; inactive means no such curve, though single readings can be large; an effect the other way counts as inactive or inconclusive;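 further: Fluo-4 calcium signal as peak divided by basal fluorescence over 4 min; nearly all actives have a fitted effect of over 75% in size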); conditions: M1-expressing cells, kinetic intracellular calcium fluorescence; series mostly up to 35.3 µM
Sequence of UniProt P08482 (P08482 whole entry, looked up): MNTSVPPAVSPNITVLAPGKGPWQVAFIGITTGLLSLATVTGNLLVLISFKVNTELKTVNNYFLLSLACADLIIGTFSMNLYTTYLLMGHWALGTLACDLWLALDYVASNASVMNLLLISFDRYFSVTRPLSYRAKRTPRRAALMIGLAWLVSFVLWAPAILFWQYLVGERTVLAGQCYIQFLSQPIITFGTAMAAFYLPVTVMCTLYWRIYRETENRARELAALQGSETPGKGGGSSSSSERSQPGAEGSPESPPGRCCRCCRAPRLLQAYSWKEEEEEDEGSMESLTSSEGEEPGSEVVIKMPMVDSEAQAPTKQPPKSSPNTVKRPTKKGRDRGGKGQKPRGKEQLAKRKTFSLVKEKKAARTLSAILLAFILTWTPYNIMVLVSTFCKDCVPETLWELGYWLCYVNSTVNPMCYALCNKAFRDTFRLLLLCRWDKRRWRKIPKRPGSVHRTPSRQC
Method in brief: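 Antagonism is measured as inhibition of the carbachol-evoked calcium rise in CHO cells transfected with rat M1. Cells are dye-loaded, exposed to compound for 10 min, then stimulated with 100 nM carbachol (EC80).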

[6] = qHTS Assay for Identification of Small Molecule Agonists for Thrombopoietin (TPO) Signaling Pathway (AID 917; active means well fitted curve in the direction sought with a large enough effect; inconclusive means small, poorly fitted or top-dose-only effect, or another doubt; inactive means no such curve, though single readings can be large; an effect the other way counts as inactive or inconclusive; further: potency means the concentration at half of the fitted maximal effect); conditions: TPO signaling pathway reporter cells, agonist qHTS, stimulated with TPO at its EC50; activity, positive = activation: at 38.5 µM (top of the series)
Method in brief: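 Human TPO receptor–transfected Ba/F3 cells (murine, IL-3-dependent) in IL-3-deficient medium; compounds plus TPO at EC50, 26 pM final; 24 hrs, 37 C; GpIIb-luciferase luminescence after 10 min RT detection.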

[7] = biological target: Pyruvate kinase PKM (Homo sapiens) (UniProt P14618); test: qHTS Assay for Inhibitors of Human Muscle Pyruvate Kinase (AID 958; active means well fitted curve in the direction sought with a large enough effect; inconclusive means small, poorly fitted or top-dose-only effect, or another doubt; inactive means no such curve, though single readings can be large; an effect the other way counts as inactive or inconclusive); conditions: purified human PKM enzyme activity; series mostly up to 57.5 µM
Sequence of UniProt P14618 (P14618 whole entry, looked up): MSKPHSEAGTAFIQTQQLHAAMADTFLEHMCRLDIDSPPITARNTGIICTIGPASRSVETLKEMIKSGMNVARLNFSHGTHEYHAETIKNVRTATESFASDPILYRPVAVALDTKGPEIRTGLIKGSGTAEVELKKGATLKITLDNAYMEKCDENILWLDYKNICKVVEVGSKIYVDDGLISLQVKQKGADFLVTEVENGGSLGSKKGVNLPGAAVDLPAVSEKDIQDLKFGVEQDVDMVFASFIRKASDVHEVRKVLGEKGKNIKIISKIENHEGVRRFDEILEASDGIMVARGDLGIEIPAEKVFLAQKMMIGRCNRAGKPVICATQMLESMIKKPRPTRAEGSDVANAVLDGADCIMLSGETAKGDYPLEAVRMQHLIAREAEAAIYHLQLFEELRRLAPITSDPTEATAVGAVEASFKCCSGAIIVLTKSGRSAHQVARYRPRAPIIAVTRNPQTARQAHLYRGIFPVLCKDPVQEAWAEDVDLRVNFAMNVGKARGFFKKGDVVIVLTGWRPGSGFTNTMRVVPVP
Method in brief: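 ATP production by PKM2 detected via luciferase luminescence after 1 h room-temperature reaction (0.1 nM enzyme, PEP at Km 0.5 mM, ADP 0.1 mM, pH 7.2 imidazole buffer). Inhibition scaled to no-enzyme control; activation referenced to 0.3 nM enzyme wells.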

[8] = biological target: 3',5'-cyclic-AMP phosphodiesterase 4B (Homo sapiens) (UniProt Q07343); test: qHTS Assay for Inhibitors of PDE-IV (AID 607; active means well fitted activation curve with a large enough effect in the main read-out, with a control signal flat, not every such curve was filed as active; inconclusive means small, poorly fitted or top-dose-only effect, or effect the other way, or a change in a side signal; further: potency means the concentration at half of the fitted maximal effect; on activation (PDE inhibition): % of control where 0% means no effect); conditions: HEK293 ACTOne CNG channel cells, membrane potential fluorescence; activation (PDE inhibition): at 22.9 µM (top of the series)
Sequence of UniProt Q07343 (Q07343 whole entry, looked up): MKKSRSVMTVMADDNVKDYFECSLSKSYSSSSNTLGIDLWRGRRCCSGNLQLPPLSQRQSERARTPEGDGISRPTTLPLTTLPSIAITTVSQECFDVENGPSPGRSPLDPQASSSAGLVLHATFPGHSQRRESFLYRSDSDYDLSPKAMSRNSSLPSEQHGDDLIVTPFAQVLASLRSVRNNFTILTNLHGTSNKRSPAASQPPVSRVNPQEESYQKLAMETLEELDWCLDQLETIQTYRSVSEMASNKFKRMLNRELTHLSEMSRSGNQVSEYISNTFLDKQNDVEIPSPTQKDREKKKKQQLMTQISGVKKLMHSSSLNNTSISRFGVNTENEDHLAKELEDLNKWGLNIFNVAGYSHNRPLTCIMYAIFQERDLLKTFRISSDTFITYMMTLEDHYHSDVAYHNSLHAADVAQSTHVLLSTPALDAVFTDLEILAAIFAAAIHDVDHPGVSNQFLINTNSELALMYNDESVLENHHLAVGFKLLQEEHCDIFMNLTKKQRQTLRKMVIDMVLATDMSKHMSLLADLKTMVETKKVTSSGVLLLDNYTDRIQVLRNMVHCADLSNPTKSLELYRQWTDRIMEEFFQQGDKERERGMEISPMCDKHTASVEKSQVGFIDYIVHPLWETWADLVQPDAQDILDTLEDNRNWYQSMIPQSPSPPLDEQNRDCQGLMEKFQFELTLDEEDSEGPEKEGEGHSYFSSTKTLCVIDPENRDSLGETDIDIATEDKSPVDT
Method in brief: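 Cell-based read-out of cAMP via a modified cyclic nucleotide-gated channel and membrane potential dye (535/590 nm) in HEK293 cells expressing PDE4 endogenously. Compounds tested up to 22.9 uM final; 100 uM RO 20-1724 reference.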

[9] = biological target: Cytochrome P450 3A4 (Homo sapiens) (UniProt P08684); test: qHTS Assay for Inhibitors and Substrates of Cytochrome P450 3A4 (AID 884; active means well fitted curve in the direction sought with a large enough effect; inconclusive means small, poorly fitted or top-dose-only effect, or another doubt; inactive means no such curve, though single readings can be large; an effect the other way counts as inactive or inconclusive; further: nearly all actives have a fitted effect of over 50% in size; further: potency means the concentration at half of the fitted maximal effect; on activity change, negative = inhibition: on the % scale 0 is the no-effect control and ±100 the full control effect); conditions: recombinant CYP3A4, Luciferin-PPXE luminescence; series mostly up to 57.1 µM
Sequence of UniProt P08684 (P08684 whole entry, looked up): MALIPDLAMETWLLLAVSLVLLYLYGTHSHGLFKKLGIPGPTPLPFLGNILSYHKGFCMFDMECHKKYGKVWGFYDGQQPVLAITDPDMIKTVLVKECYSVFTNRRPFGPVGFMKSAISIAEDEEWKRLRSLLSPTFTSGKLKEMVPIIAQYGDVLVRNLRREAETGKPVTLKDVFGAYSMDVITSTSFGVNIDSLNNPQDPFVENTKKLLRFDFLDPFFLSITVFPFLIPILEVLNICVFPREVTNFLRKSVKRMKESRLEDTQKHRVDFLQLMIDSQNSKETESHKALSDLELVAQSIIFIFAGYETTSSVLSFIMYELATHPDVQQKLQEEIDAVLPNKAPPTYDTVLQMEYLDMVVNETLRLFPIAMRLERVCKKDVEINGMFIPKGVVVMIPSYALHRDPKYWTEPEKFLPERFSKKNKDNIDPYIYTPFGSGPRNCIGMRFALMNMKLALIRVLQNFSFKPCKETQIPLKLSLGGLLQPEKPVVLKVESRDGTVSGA
Method in brief: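 Luminescent readout of luciferin produced by CYP3A4 (20 nM) dealkylation of Luciferin-PPXE, 25 uM (its KM). NADPH-driven reaction ran 60 min at RT after 10 min compound preincubation; data scaled to 57 uM ketoconazole as 100% inhibition.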

[10] = biological target: Cytochrome P450 2C9 (Homo sapiens) (UniProt P11712); test: qHTS Assay for Inhibitors and Substrates of Cytochrome P450 2C9 (AID 883; active means well fitted curve in the direction sought with a large enough effect; inconclusive means small, poorly fitted or top-dose-only effect, or another doubt; inactive means no such curve, though single readings can be large; an effect the other way counts as inactive or inconclusive; further: nearly all actives have a fitted effect of over 60% in size; further: potency means the concentration at half of the fitted maximal effect; on activity change, negative = inhibition: on the % scale 0 is the no-effect control and ±100 the full control effect); conditions: recombinant CYP2C9, luciferin-H luminescence, 60 min; activity change, negative = inhibition: at 57.1 µM (top of the series)
Sequence of UniProt P11712 (P11712 whole entry, looked up): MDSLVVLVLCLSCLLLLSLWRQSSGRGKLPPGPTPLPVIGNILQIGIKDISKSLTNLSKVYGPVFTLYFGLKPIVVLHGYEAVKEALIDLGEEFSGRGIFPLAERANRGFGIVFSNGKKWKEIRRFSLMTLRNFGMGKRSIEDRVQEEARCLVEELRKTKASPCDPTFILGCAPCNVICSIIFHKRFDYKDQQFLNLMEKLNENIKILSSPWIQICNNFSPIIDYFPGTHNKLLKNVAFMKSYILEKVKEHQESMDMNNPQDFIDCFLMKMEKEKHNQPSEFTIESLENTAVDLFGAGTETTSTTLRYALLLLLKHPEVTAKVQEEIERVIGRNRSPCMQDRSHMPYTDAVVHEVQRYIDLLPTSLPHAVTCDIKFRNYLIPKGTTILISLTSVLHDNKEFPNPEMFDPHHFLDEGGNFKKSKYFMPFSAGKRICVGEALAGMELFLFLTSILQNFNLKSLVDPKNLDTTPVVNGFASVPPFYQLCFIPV
Method in brief: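 Luminescent read-out of deoxyluciferin hydroxylation, normalized to 57uM sulphaphenazole (AC100). Reaction: 10nM enzyme, 100uM Luciferin-H (equal to KM), 25mM KPO4, 10 min compound preincubation, then 60 min with NADPH regeneration, both at 37C.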

[11] = biological target: Mitogen-activated protein kinase 10 (Mus musculus) (UniProt Q61831); test: JNK3 AlphaScreen Assay (AID 530; active means well fitted curve in either direction with a large enough effect, not every such curve was filed as active; inconclusive means small, poorly fitted or top-dose-only effect, or another doubt;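 further: kinase came from lysate of stimulated human HepG2 cells; signal reports phosphorylation of biotinylated GST-cJun 1-79 at Ser73 with 10 µM ATP; potency means the concentration at half of the fitted maximal effect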); conditions: JNK3 lysate, c-Jun phosphorylation; activity change, negative = inhibition: at 57.1 µM (top of the series)
Method in brief: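 qHTS titrations with 15 min compound pre-incubation before adding ATP (10 uM final). Read-out: AlphaScreen of Ser73-phosphorylated biotin-GST-cJun using HepG2 lysate JNK3 activated by IL-1β and TNFα.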

[12] = biological target: Ubiquitin carboxyl-terminal hydrolase 1 (Homo sapiens) (UniProt O94782); test: Inhibitors of USP1/UAF1: Pilot qHTS (AID 504865; active means well fitted curve in the direction sought with a large enough effect; inconclusive means small, poorly fitted or top-dose-only effect, or another doubt; inactive means no such curve, though single readings can be large; an effect the other way counts as inactive or inconclusive;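 further: rhodamine fluorescence freed from ubiquitin-rhodamine substrate followed over time; potency means the concentration at half of the fitted maximal effect; nearly all actives have a fitted effect of over 35% in size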); conditions: purified USP1/UAF1, Ub-rhodamine cleavage fluorescence; series mostly up to 54.9 µM
Sequence of UniProt O94782 (O94782 whole entry, looked up): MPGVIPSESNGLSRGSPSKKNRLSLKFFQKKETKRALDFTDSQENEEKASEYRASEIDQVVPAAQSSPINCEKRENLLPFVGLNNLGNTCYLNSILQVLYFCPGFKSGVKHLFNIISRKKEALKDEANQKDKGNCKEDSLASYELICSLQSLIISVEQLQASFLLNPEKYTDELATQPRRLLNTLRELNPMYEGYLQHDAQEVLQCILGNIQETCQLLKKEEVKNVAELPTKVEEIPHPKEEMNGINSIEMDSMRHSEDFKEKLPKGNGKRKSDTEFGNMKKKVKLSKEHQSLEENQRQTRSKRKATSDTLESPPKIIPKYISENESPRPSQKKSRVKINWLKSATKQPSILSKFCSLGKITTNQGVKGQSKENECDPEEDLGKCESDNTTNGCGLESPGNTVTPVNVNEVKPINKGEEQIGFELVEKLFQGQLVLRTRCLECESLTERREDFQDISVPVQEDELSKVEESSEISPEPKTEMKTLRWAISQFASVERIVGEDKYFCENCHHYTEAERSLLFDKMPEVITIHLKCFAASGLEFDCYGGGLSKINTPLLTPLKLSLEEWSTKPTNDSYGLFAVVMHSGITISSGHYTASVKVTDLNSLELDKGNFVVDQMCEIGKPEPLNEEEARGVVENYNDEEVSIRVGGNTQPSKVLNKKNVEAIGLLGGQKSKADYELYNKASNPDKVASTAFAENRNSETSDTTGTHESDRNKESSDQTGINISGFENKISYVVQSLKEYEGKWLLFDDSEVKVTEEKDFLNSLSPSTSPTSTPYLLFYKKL
Method in brief: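 Enzyme-free wells gave the negative control, while test wells held 1nM USP1/UAF1 preincubated with compound for 15 min at room temperature. Ub-Rho at 150nM final started the reaction, and fluorescence at 480/540 nm was recorded kinetically.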

[13] = qHTS Assay for Identification of Small Molecule Antagonists for NFkB Signaling Pathway (AID 895; active means well fitted inhibition curve with a large enough effect in the signal ratio, with a control signal flat, not every such curve was filed as active; inconclusive means small, poorly fitted or top-dose-only effect, or effect the other way, or a change in a side signal; the % refers to the signal ratio; further: on the % scale 0 is the no-effect control and ±100 the full control effect); conditions: NFkB beta-lactamase reporter cells, FRET ratio 460/530, stimulated with 10 pM TNF alpha; activity change, negative = inhibition: at 38.3 µM (top of the series)
Method in brief: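 Beta-lactamase reporter read-out (460 and 530 nm emission ratio, 405 nm excitation, 2 hrs substrate loading RT) after 5 hr stimulation with 10 pM TNF alpha in compound-treated NFkB-bla ME-180 cells in low-serum medium.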
Tags describe the fitted curve by direction and shape or compound fluorescence and quenching.

C[C@@]12C[C@@H](O)[C@H]3[C@@H](CCC4=CC(=O)CC[C@]43C)[C@H]1CC[C@H]2C(=O)CO
Potency [1]: active: 74.2 nM and active: 8.8 nM | Potency [2]: active: 179 nM and inconclusive: 16.5 nM [partial modulator] | Potency [3]: inconclusive: 63.1 nM [inhibitor, full curve, poor fit] and inconclusive: 158 nM [inhibitor, full curve, poor fit]

CCCCc1cc(=O)oc2c(CN3CCCC3)c(O)ccc12
activity, negative = inhibition [4]: inactive: 3.31% [at 17.2 µM] | Potency [3]: inconclusive: 1 µM [activator, partial curve]

CC(=O)N1CCC2(CC1)CCN(C(=O)Nc1cccc(C#N)c1)CC2
activity, negative = inhibition [4]: inactive: 3.47% | Potency [3]: inconclusive: 0.631 µM [activator, partial curve]

Cc1ccnc(N2CCN(c3c4c(c(C#N)c5nc6ccccc6n35)CCC4)CC2)c1
activity, negative = inhibition [4]: inconclusive: 66.6% [activator] [at 17.2 µM] | Potency [3]: inconclusive: 10 µM [fluorescent, partial curve]

CCOC(=O)c1cc2cc(OC)ccc2[nH]1
Potency [1]: inactive: > 20.6 µM

CC1(C)S[C@@H]2[C@H](NC(=O)COc3ccccc3)C(=O)N2[C@H]1C(=O)O (tested in a mixture with another compound)
Potency [1]: inconclusive: 10.8 µM [partial curve]

CCCCCCCCCC(=O)N[C@@H](CN1CCOCC1)[C@@H](O)c1ccccc1
activity, negative = inhibition [4]: inconclusive: -40.4% [inhibitor] [at 38 µM] | Potency [3]: inconclusive: 25.1 µM [inhibitor, partial curve] | Potency [5]: inactive

Cc1c(NC(=O)Nc2c(Cl)cccc2Cl)c(=O)n(-c2ccccc2)n1C
activity, negative = inhibition [4]: inactive: -1.35% | activation [3]: inactive: -3.31%

CN[C@]1(C)[C@@H]2CC[C@@H](C2)C1(C)C
activity, negative = inhibition [4]: inactive: -12.2% [at 38 µM] | Potency [6]: inconclusive: 10 µM [activator, single point] | Potency [5]: inactive | Potency [7]: inconclusive: 0.01 µM [inhibitor, full curve]

COCCNc1nc(-c2ccccc2CN(C)C)nc2ccccc12
activity, negative = inhibition [4]: inactive: 10% | activation [3]: inactive: 2.67%

COc1cc(/C=C\C(=O)CC(=O)/C=C\c2ccc(O)c(OC)c2)ccc1O
Potency [1]: inconclusive: 17.1 µM [partial curve] | Potency [8]: inconclusive: 15.1 µM [inhibitor, single point]

O=C1OC2(c3ccc(O)cc3Oc3cc(O)ccc32)c2c1c(-c1ccccc1)c(-c1ccccc1)c(-c1ccccc1)c2-c1ccccc1
Potency [1]: inconclusive: 17.3 µM [partial curve] | activation [3]: inconclusive: -37.5%

CN(Cc1ccco1)c1ncncc1-c1ccoc1
Potency [1]: inconclusive: 38.8 µM [single point] | Potency [8]: inactive | Potency [9]: inconclusive: 3.16 µM [inhibitor, full curve]

CN(C)Cc1ccccc1-c1nc(NCc2cccs2)c2ccccc2n1
Potency [1]: inconclusive: 15.2 µM [partial curve] | Potency [8]: inconclusive: 5.01 µM [rising, partial curve]

CC(C)[C@@H](C(=O)O)N1C(=O)c2ccccc2C1=O
Potency [1]: inactive: > 46 µM | activation [3]: inconclusive: -11.4%

O=C(c1ccncc1)N1CCC2(CC1)CN(C(c1ccccc1)c1ccccc1)C2
Potency [2]: inactive: > 46 µM

O=C(O)CC(CC(=O)O)C(=O)O
Potency [2]: inconclusive: 9.33 µM [single point]

O=C(O)CCc1nc(-c2ccccc2-n2cccc2)no1
Potency [1]: inactive: > 46 µM | Potency [8]: inactive

c1ccc(Nc2cc(-c3ccoc3)ncn2)cc1
Potency [1]: inconclusive: 49.1 µM [single point] | activity change, negative = inhibition [10]: inactive: -13.3% [at 2.29 µM] | Potency [9]: inactive | activation [3]: inactive: -8.49%

CN(C)c1ncc2ncc(=O)n(Cc3ccc(F)cc3)c2n1
Potency [1]: inconclusive: 5.87 µM [single point] | Potency [9]: inconclusive: 3.16 µM [inhibitor, full curve, poor fit]

CCOC(=O)C1/C(=N\O)CC(C)(O)C(C(=O)OCC)C1c1ccc(OC)c(OC)c1 (centres undefined)
Potency [1]: inconclusive: 28.5 µM [single point] | Potency [3]: active: 0.794 µM

CC1C[C@@]2(NC(=O)NC2=O)C(C)CN1C (some centres undefined)
Potency [1]: inactive: > 20.6 µM | activation [3]: inconclusive: 23.2%

C#CCCCCCCCCCCCCCCCC(=O)O
Potency [2]: inconclusive: 48.1 µM [single point] | Potency [11]: inconclusive: 1 µM [activator, partial curve] | Potency [12]: inconclusive: 35.5 µM [inhibitor, partial curve]

O=C(O)CCCC[C@H]1CCSS1
Potency [1]: inactive: > 46 µM | Potency [10]: inactive | Potency [13]: inactive | Potency [6]: inactive

Cc1ccccc1N=C(N)Nc1ccccc1C
Potency [1]: inconclusive: 30.2 µM [partial curve] | Potency [8]: inconclusive: 9.51 µM [rising, partial curve]

O=C(O)CS(=O)c1ccc2c3c(cccc13)C(=O)c1ccccc1-2 (centres undefined)
Potency [1]: inconclusive: 19.8 µM [single point] | Potency [10]: inconclusive: 6.31 µM [inhibitor, single point] | Potency [9]: inconclusive: 3.98 µM [inhibitor, single point]
